The other results are listed elsewhere or left out.
What was measured:
Test in all cases: glycan array binding signal (z-score within array); higher = stronger binding
Settings in all cases: glycan notation: IUPAC condensed, linker removed
Glc(a1-4)Glc = target: Glc(a1-4)Glc
How it was run: (§1)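 Glycan array data came from 3228 arrays in the Consortium for Functional Glycomics database, and only arrays with an available protein sequence were kept. Glycan names were put into IUPAC-condensed notation, and columns mapping to the same glycan were averaged. The binding signal is a within-array Z-score, averaged across arrays of one protein sequence run at different concentrations or buffers and across linkers. A negative Z-score can be read as non-binding.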

Glc(a1-6)Glc(a1-6)Glc = target: Glc(a1-6)Glc(a1-6)Glc
How it was run: as §1

Glc(b1-4)Glc = target: Glc(b1-4)Glc
How it was run: as §1

Glc(b1-6)Glc = target: Glc(b1-6)Glc
How it was run: as §1

GlcA(b1-3)Gal = target: GlcA(b1-3)Gal
How it was run: as §1

GlcA(b1-3)GlcNAc = target: GlcA(b1-3)GlcNAc
How it was run: as §1

GlcA(b1-6)Gal = target: GlcA(b1-6)Gal
How it was run: as §1

[1] = target: GlcNAc(a1-3)Gal(b1-4)GlcNAc
How it was run: as §1

[2] = target: GlcNAc(a1-4)Gal(b1-3)GlcNAc
How it was run: as §1

[3] = target: GlcNAc(a1-4)Gal(b1-4)GalNAc
How it was run: as §1

[4] = target: GlcNAc(a1-4)Gal(b1-4)GlcNAc
How it was run: as §1

[5] = target: GlcNAc(a1-4)Gal(b1-4)GlcNAc(b1-3)Gal(b1-4)Glc
How it was run: as §1

[6] = target: GlcNAc(a1-4)Gal(b1-4)GlcNAc(b1-3)Gal(b1-4)GlcNAc
How it was run: as §1

[7] = target: GlcNAc(a1-4)Gal(b1-4)GlcNAc(b1-3)Gal(b1-4)GlcNAc(b1-3)Gal(b1-4)GlcNAc
How it was run: as §1

[8] = target: GlcNAc(a1-4)Gal(b1-4)GlcNAc(b1-3)Gal(b1-4)[Fuc(a1-3)]GlcNAc(b1-3)Gal(b1-4)[Fuc(a1-3)]GlcNAc
How it was run: as §1

[9] = target: GlcNAc(a1-6)Gal(b1-4)GlcNAc
How it was run: as §1

[10] = target: GlcNAc(b1-2)Gal(b1-3)GalNAc
How it was run: as §1

[11] = target: GlcNAc(b1-2)Man(a1-3)[GlcNAc(b1-2)Man(a1-6)]Man(b1-4)GlcNAc(b1-4)GlcNAc
How it was run: as §1

[12] = target: GlcNAc(b1-2)Man(a1-3)[GlcNAc(b1-2)Man(a1-6)]Man(b1-4)GlcNAc(b1-4)[Fuc(a1-6)]GlcNAc
How it was run: as §1

GlcNAc(b1-3)Gal = target: GlcNAc(b1-3)Gal
How it was run: as §1

[13] = target: GlcNAc(b1-3)Gal(b1-3)GalNAc
How it was run: as §1

GlcNAc(b1-3)Gal(b1-4)Glc = target: GlcNAc(b1-3)Gal(b1-4)Glc
How it was run: as §1

[14] = target: GlcNAc(b1-3)Gal(b1-4)GlcNAc
How it was run: as §1

[15] = target: GlcNAc(b1-3)Gal(b1-4)GlcNAc(b1-3)Gal(b1-4)GlcNAc
How it was run: as §1

GlcNAc(b1-3)GalNAc = target: GlcNAc(b1-3)GalNAc
How it was run: as §1

GlcNAc(b1-3)Man = target: GlcNAc(b1-3)Man
How it was run: as §1

[16] = target: GlcNAc(b1-3)[GlcNAc(b1-4)][GlcNAc(b1-6)]GlcNAc
How it was run: as §1

[17] = target: GlcNAc(b1-3)[GlcNAc(b1-6)]Gal(b1-4)GlcNAc
How it was run: as §1

[18] = target: GlcNAc(b1-3)[GlcNAc(b1-6)]GalNAc
How it was run: as §1

[19] = target: GlcNAc(b1-4)Gal(b1-4)GlcNAc
How it was run: as §1

GlcNAc(b1-4)GlcNAc = target: GlcNAc(b1-4)GlcNAc
How it was run: as §1

[20] = target: GlcNAc(b1-4)GlcNAc(b1-4)GlcNAc
How it was run: as §1

[21] = target: GlcNAc(b1-4)GlcNAc(b1-4)GlcNAc(b1-4)GlcNAc(b1-4)GlcNAc
How it was run: as §1

[22] = target: GlcNAc(b1-4)GlcNAc(b1-4)GlcNAc(b1-4)GlcNAc(b1-4)GlcNAc(b1-4)GlcNAc
How it was run: as §1

[23] = target: GlcNAc(b1-4)[GlcNAc(b1-6)]GalNAc
How it was run: as §1

[24] = target: GlcNAc(b1-6)Gal(b1-4)GlcNAc
How it was run: as §1

B1: Spy0252 (Streptococcus pyogenes), Q9A1I9_STRP1 (protein)
chain: MNMKKLASLAMLGASVLGLAACGGKSQKEAGASKSDTAKTEITWWAFPVFTQEKAEDGVGTYEKKLIAAFEKANPEIKVKLETIDFTSGPEKITTAIEAGTAPDVLFDAPGRIIQYGKNGKLADLNDLFTEEFTKDVNNDKLIQASKAGDTAYMYPISSAPFYMALNKKMLKDAGVLDLVKEGWTTDDFEKVLKALKDKGYNPGSFFANGQGGDQGPRAFFANLYSSHITDDKVTKYTTDDANSIKAMTKISNWIKDGLMMNGSQYDGSADIQNFANGQTSFTILWAPAQPGIQAKLLEASKVDYLEIPFPSDDGKPELEYLVNGFAVFNNKDEQKVAASKTFIQFIADDKEWGPKNVVRTGAFPVRTSYGDLYKDKRMEKIAEWTKFYSPYYNTIDGFAEMRTLWFPMVQAVSNGDEKPEDALKAFTEKANKTIKKTQ
glycan array binding signal (z-score) (Glc(a1-4)Glc): 0.228 | glycan array binding signal (z-score) (Glc(a1-6)Glc(a1-6)Glc): -0.226 | glycan array binding signal (z-score) (Glc(b1-4)Glc): 0.186 | glycan array binding signal (z-score) (Glc(b1-6)Glc): -0.246 | glycan array binding signal (z-score) (GlcA(b1-3)Gal): -0.259 | glycan array binding signal (z-score) (GlcA(b1-3)GlcNAc): -0.07 | glycan array binding signal (z-score) (GlcA(b1-6)Gal): -0.146 | glycan array binding signal (z-score) [1]: -0.246 | glycan array binding signal (z-score) [2]: -0.246 | glycan array binding signal (z-score) [3]: -0.243 | glycan array binding signal (z-score) [4]: -0.254 | glycan array binding signal (z-score) [5]: 0.073 | glycan array binding signal (z-score) [6]: 0.176 | glycan array binding signal (z-score) [7]: -0.252 | glycan array binding signal (z-score) [8]: -0.027 | glycan array binding signal (z-score) [9]: -0.273 | glycan array binding signal (z-score) [10]: -0.171 | glycan array binding signal (z-score) [11]: -0.262 | glycan array binding signal (z-score) [12]: -0.186 | glycan array binding signal (z-score) (GlcNAc(b1-3)Gal): -0.277 | glycan array binding signal (z-score) [13]: -0.105 | glycan array binding signal (z-score) (GlcNAc(b1-3)Gal(b1-4)Glc): -0.2 | glycan array binding signal (z-score) [14]: -0.267 | glycan array binding signal (z-score) [15]: -0.263 | glycan array binding signal (z-score) (GlcNAc(b1-3)GalNAc): -0.26 | glycan array binding signal (z-score) (GlcNAc(b1-3)Man): -0.263 | glycan array binding signal (z-score) [16]: -0.264 | glycan array binding signal (z-score) [17]: -0.257 | glycan array binding signal (z-score) [18]: -0.259 | glycan array binding signal (z-score) [19]: -0.249 | glycan array binding signal (z-score) (GlcNAc(b1-4)GlcNAc): -0.22 | glycan array binding signal (z-score) [20]: 0.018 | glycan array binding signal (z-score) [21]: -0.148 | glycan array binding signal (z-score) [22]: 0.095 | glycan array binding signal (z-score) [23]: -0.277 | glycan array binding signal (z-score) [24]: -0.261

Source: the supplement of paper PMC8728848
